Reference: the supplement of paper PMC8728848
The other results are listed elsewhere or left out.

Experiments:
Test in all cases: glycan array binding signal (z-score within array); higher = stronger binding
Conditions in all cases: glycan notation: IUPAC condensed, linker removed
[1] = biological target: Gal(b1-3)GlcNAc(b1-3)Gal(b1-4)GlcNAc(b1-2)[Gal(b1-3)GlcNAc(b1-3)Gal(b1-4)GlcNAc(b1-6)]Man(a1-6)[Gal(b1-3)GlcNAc(b1-3)Gal(b1-4)GlcNAc(b1-2)Man(a1-3)]Man(b1-4)GlcNAc(b1-4)[Fuc(a1-6)]GlcNAc
Method in brief: (§1)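 The binding signal is a Z-score computed within each array. Data were drawn from 3228 arrays in the Consortium for Functional Glycomics database, restricted to those with a known protein sequence. Scores were averaged over arrays of the same protein sequence at different concentrations or buffers, and over linkers, and negative values can be taken as non-binding.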

[2] = biological target: Gal(b1-3)GlcNAc(b1-3)Gal(b1-4)GlcNAc(b1-3)Gal(b1-4)GlcNAc(b1-2)[Gal(b1-3)GlcNAc(b1-3)Gal(b1-4)GlcNAc(b1-3)Gal(b1-4)GlcNAc(b1-6)]Man(a1-6)[Gal(b1-3)GlcNAc(b1-3)Gal(b1-4)GlcNAc(b1-3)Gal(b1-4)GlcNAc(b1-2)Man(a1-3)]Man(b1-4)GlcNAc(b1-4)[Fuc(a1-6)]GlcNAc
Method in brief: as §1

[3] = biological target: Gal(b1-3)GlcNAc(b1-3)Gal(b1-4)GlcNAc(b1-6)[Gal(b1-3)GlcNAc(b1-3)]Gal(b1-4)Glc
Method in brief: as §1

[4] = biological target: Gal(b1-3)GlcNAc(b1-3)Gal(b1-4)[Fuc(a1-3)]GlcNAc
Method in brief: as §1

[5] = biological target: Gal(b1-3)GlcNAc(b1-3)Gal(b1-4)[Fuc(a1-3)]GlcNAc(b1-6)[Gal(b1-3)GlcNAc(b1-3)]Gal(b1-4)Glc
Method in brief: as §1

[6] = biological target: Gal(b1-3)GlcNAc(b1-3)GalNAc
Method in brief: as §1

[7] = biological target: Gal(b1-3)GlcNAc(b1-6)Gal(b1-4)GlcNAc
Method in brief: as §1

[8] = biological target: Gal(b1-3)GlcNAc(b1-6)GalNAc
Method in brief: as §1

[9] = biological target: Gal(b1-3)GlcNAc(b1-6)[Gal(b1-3)]GalNAc
Method in brief: as §1

Gal(b1-3)GlcNAc6S = biological target: Gal(b1-3)GlcNAc6S
Method in brief: as §1

[10] = biological target: Gal(b1-3)[Fuc(a1-4)]GlcNAc
Method in brief: as §1

[11] = biological target: Gal(b1-3)[Fuc(a1-4)]GlcNAc(b1-2)Man
Method in brief: as §1

[12] = biological target: Gal(b1-3)[Fuc(a1-4)]GlcNAc(b1-2)Man(a1-3)[Gal(b1-3)[Fuc(a1-4)]GlcNAc(b1-2)Man(a1-6)]Man(b1-4)GlcNAc(b1-4)GlcNAc
Method in brief: as §1

[13] = biological target: Gal(b1-3)[Fuc(a1-4)]GlcNAc(b1-2)Man(a1-3)[Gal(b1-3)[Fuc(a1-4)]GlcNAc(b1-2)Man(a1-6)]Man(b1-4)GlcNAc(b1-4)[Fuc(a1-6)]GlcNAc
Method in brief: as §1

[14] = biological target: Gal(b1-3)[Fuc(a1-4)]GlcNAc(b1-3)Gal(b1-3)[Fuc(a1-4)]GlcNAc
Method in brief: as §1

[15] = biological target: Gal(b1-3)[Fuc(a1-4)]GlcNAc(b1-3)Gal(b1-4)GlcNAc
Method in brief: as §1

[16] = biological target: Gal(b1-3)[Fuc(a1-4)]GlcNAc(b1-3)Gal(b1-4)[Fuc(a1-3)]GlcNAc
Method in brief: as §1

[17] = biological target: Gal(b1-3)[Fuc(a1-4)]GlcNAc(b1-6)GalNAc
Method in brief: as §1

[18] = biological target: Gal(b1-3)[GlcNAc(b1-6)]GalNAc
Method in brief: as §1

[19] = biological target: Gal(b1-3)[Neu5Ac(a2-6)]GalNAc
Method in brief: as §1

[20] = biological target: Gal(b1-3)[Neu5Ac(a2-6)]GlcNAc(b1-4)Gal(b1-4)Glc
Method in brief: as §1

[21] = biological target: Gal(b1-3)[Neu5Ac(a2-6)]GlcNAc(b1-6)Gal(b1-4)Glc
Method in brief: as §1

[22] = biological target: Gal(b1-3)[Neu5Ac(b2-6)]GalNAc
Method in brief: as §1

Gal(b1-4)Gal = biological target: Gal(b1-4)Gal
Method in brief: as §1

[23] = biological target: Gal(b1-4)GalNAc(a1-3)[Fuc(a1-2)]Gal(b1-4)GlcNAc
Method in brief: as §1

[24] = biological target: Gal(b1-4)GalNAc(b1-3)[Fuc(a1-2)]Gal(b1-4)GlcNAc
Method in brief: as §1

Gal(b1-4)Glc = biological target: Gal(b1-4)Glc
Method in brief: as §1

Gal(b1-4)Glc6S = biological target: Gal(b1-4)Glc6S
Method in brief: as §1

Gal(b1-4)GlcNAc = biological target: Gal(b1-4)GlcNAc
Method in brief: as §1

[25] = biological target: Gal(b1-4)GlcNAc(a1-6)Gal(b1-4)GlcNAc
Method in brief: as §1

Gal(b1-4)GlcNAc(b1-2)Man = biological target: Gal(b1-4)GlcNAc(b1-2)Man
Method in brief: as §1

[26] = biological target: Gal(b1-4)GlcNAc(b1-2)Man(a1-3)Man(b1-4)GlcNAc(b1-4)GlcNAc
Method in brief: as §1

[27] = biological target: Gal(b1-4)GlcNAc(b1-2)Man(a1-3)[Gal(b1-4)GlcNAc(b1-2)Man(a1-6)]Man(b1-4)GlcNAc(b1-4)GlcNAc
Method in brief: as §1

[28] = biological target: Gal(b1-4)GlcNAc(b1-2)Man(a1-3)[Gal(b1-4)GlcNAc(b1-2)Man(a1-6)]Man(b1-4)GlcNAc(b1-4)[Fuc(a1-6)]GlcNAc
Method in brief: as §1

[29] = biological target: Gal(b1-4)GlcNAc(b1-2)Man(a1-3)[Gal(b1-4)GlcNAc(b1-2)Man(a1-6)][Gal(b1-4)GlcNAc(b1-4)]Man(b1-4)GlcNAc(b1-4)[Fuc(a1-6)]GlcNAc
Method in brief: as §1

[30] = biological target: Gal(b1-4)GlcNAc(b1-2)Man(a1-3)[Gal(b1-4)GlcNAc(b1-2)Man(a1-6)][GlcNAc(b1-4)]Man(b1-4)GlcNAc(b1-4)[Fuc(a1-6)]GlcNAc
Method in brief: as §1

[31] = biological target: Gal(b1-4)GlcNAc(b1-2)Man(a1-3)[GlcNAc(b1-2)Man(a1-6)]Man(b1-4)GlcNAc(b1-4)GlcNAc
Method in brief: as §1

[32] = biological target: Gal(b1-4)GlcNAc(b1-2)Man(a1-3)[GlcNAc(b1-4)][Gal(b1-4)GlcNAc(b1-2)Man(a1-6)]Man(b1-4)GlcNAc(b1-4)GlcNAc
Method in brief: as §1

[33] = biological target: Gal(b1-4)GlcNAc(b1-2)Man(a1-3)[Man(a1-6)]Man(b1-4)GlcNAc(b1-4)GlcNAc
Method in brief: as §1

[34] = biological target: Gal(b1-4)GlcNAc(b1-2)Man(a1-6)Man(b1-4)GlcNAc(b1-4)GlcNAc
Method in brief: as §1

[35] = biological target: Gal(b1-4)GlcNAc(b1-2)Man(a1-6)[GlcNAc(b1-2)Man(a1-3)]Man(b1-4)GlcNAc(b1-4)GlcNAc
Method in brief: as §1

[36] = biological target: Gal(b1-4)GlcNAc(b1-2)Man(a1-6)[Man(a1-3)]Man(b1-4)GlcNAc(b1-4)GlcNAc
Method in brief: as §1

[37] = biological target: Gal(b1-4)GlcNAc(b1-2)[Gal(b1-4)GlcNAc(b1-4)]Man(a1-3)[Gal(b1-4)GlcNAc(b1-2)Man(a1-6)]Man(b1-4)GlcNAc(b1-4)GlcNAc
Method in brief: as §1

[38] = biological target: Gal(b1-4)GlcNAc(b1-2)[Gal(b1-4)GlcNAc(b1-4)]Man(a1-3)[Gal(b1-4)GlcNAc(b1-2)[Gal(b1-4)GlcNAc(b1-6)]Man(a1-6)]Man(b1-4)GlcNAc(b1-4)GlcNAc
Method in brief: as §1

[39] = biological target: Gal(b1-4)GlcNAc(b1-2)[Gal(b1-4)GlcNAc(b1-4)]Man(a1-3)[GlcNAc(b1-4)][Gal(b1-4)GlcNAc(b1-2)Man(a1-6)]Man(b1-4)GlcNAc(b1-4)GlcNAc
Method in brief: as §1

B1: rCNL (Clitocybe nebularis), B2ZRS9 (protein)
chain: SITPGTYNITNVAYTNRLIDLTGSNPAENTLIIGHHLNKTPSGYGNQQWTLVQLPHTTIYTMQAVNPQSYVRVRDDNLVDGAALVGSQQPTPVSIESAGNSGQFRIKIPNLGLALTLPSDANSTPIVLGEVDETSTNQLWAFESVSAV
B1 was tested, and the “glycan array binding signal (z-score)” value [1] was -0.195, the “glycan array binding signal (z-score)” value [2] was -0.203 and the “glycan array binding signal (z-score)” value [3] was -0.019. The “glycan array binding signal (z-score)” value [4] was -0.216, the “glycan array binding signal (z-score)” value [5] was -0.102 and the “glycan array binding signal (z-score)” value [6] was -0.295. For the same binder, the “glycan array binding signal (z-score)” value [7] was -0.241, the “glycan array binding signal (z-score)” value [8] was -0.203 and the “glycan array binding signal (z-score)” value [9] was -0.215. For the same binder, the “glycan array binding signal (z-score)” value (Gal(b1-3)GlcNAc6S) was -0.226, the “glycan array binding signal (z-score)” value [10] was -0.303 and the “glycan array binding signal (z-score)” value [11] was -0.187. For the same binder, the “glycan array binding signal (z-score)” value [12] was -0.322, the “glycan array binding signal (z-score)” value [13] was -0.262 and the “glycan array binding signal (z-score)” value [14] was -0.306. For the same binder, the “glycan array binding signal (z-score)” value [15] was -0.278, the “glycan array binding signal (z-score)” value [16] was -0.31 and the “glycan array binding signal (z-score)” value [17] was -0.22. For the same binder, the “glycan array binding signal (z-score)” value [18] was 0.203, the “glycan array binding signal (z-score)” value [19] was -0.019 and the “glycan array binding signal (z-score)” value [20] was -0.226. For the same binder, the “glycan array binding signal (z-score)” value [21] was -0.252, the “glycan array binding signal (z-score)” value [22] was -0.305 and the “glycan array binding signal (z-score)” value (Gal(b1-4)Gal) was -0.215. For the same binder, the “glycan array binding signal (z-score)” value [23] was 1.04, the “glycan array binding signal (z-score)” value [24] was 0.228 and the “glycan array binding signal (z-score)” value (Gal(b1-4)Glc) was -0.28. For the same binder, the “glycan array binding signal (z-score)” value (Gal(b1-4)Glc6S) was -0.306, the “glycan array binding signal (z-score)” value (Gal(b1-4)GlcNAc) was -0.261 and the “glycan array binding signal (z-score)” value [25] was -0.288. The “glycan array binding signal (z-score)” value (Gal(b1-4)GlcNAc(b1-2)Man) was -0.215, the “glycan array binding signal (z-score)” value [26] was -0.275 and the “glycan array binding signal (z-score)” value [27] was -0.13. For the same binder, the “glycan array binding signal (z-score)” value [28] was -0.126, the “glycan array binding signal (z-score)” value [29] was -0.179 and the “glycan array binding signal (z-score)” value [30] was -0.221. The “glycan array binding signal (z-score)” value [31] was -0.137, the “glycan array binding signal (z-score)” value [32] was -0.207 and the “glycan array binding signal (z-score)” value [33] was -0.269. For the same binder, the “glycan array binding signal (z-score)” value [34] was -0.178, the “glycan array binding signal (z-score)” value [35] was -0.16 and the “glycan array binding signal (z-score)” value [36] was -0.166. For the same binder, the “glycan array binding signal (z-score)” value [37] was -0.017, the “glycan array binding signal (z-score)” value [38] was -0.022 and the “glycan array binding signal (z-score)” value [39] was -0.152.
